Measurements: publication PMC5342809
Results are given in words; binding and its absence hold for the method and conditions named. Binding seen in cells or lysates may run through a third protein. Some results given as binding are weak or reduced against the parent protein; the word gives no strength. For some of these results: Where a sequence is shown, tags or fusion partners need not be part of it.

Sequences of proteins named here, by UniProt entry; tags and fusion partners are left off. A change or cut given only in a name is not applied to a line headed by its entry. Residues count along the entry.
UniProt P84022: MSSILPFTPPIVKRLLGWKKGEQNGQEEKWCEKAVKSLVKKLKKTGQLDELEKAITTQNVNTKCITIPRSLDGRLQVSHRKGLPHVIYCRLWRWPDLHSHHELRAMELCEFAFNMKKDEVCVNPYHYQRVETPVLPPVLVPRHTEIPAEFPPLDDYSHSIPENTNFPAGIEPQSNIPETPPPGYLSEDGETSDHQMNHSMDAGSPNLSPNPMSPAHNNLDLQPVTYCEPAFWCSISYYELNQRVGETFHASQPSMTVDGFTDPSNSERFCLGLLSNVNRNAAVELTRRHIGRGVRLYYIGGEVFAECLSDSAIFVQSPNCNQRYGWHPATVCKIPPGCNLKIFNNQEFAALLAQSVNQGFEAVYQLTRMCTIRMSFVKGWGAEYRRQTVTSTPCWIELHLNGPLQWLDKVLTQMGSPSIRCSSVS
GST-Smad3-MH1: residues 1-200 of P84022
UniProt Q15796: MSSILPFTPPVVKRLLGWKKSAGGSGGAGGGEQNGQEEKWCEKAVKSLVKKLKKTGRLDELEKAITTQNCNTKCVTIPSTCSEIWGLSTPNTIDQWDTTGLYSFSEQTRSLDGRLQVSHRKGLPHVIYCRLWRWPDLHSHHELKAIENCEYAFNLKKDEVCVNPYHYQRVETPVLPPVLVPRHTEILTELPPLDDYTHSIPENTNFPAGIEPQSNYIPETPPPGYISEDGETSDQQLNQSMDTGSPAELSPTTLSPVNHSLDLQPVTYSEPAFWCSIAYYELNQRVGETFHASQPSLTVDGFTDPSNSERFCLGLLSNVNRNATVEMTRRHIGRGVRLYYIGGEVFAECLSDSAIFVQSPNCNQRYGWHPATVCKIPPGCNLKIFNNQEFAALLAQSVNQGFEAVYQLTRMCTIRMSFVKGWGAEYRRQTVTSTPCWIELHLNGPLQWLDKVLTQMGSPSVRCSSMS

How the values were obtained:
Flag-Kindlin-1 = target: T1, Flag-Kindlin-1 (UniProt Q9BQL6); assay: co-IP; anti-Flag antibody on NP40 lysates of HCT116 cells transfected with Flag-Kindlin-1 or its truncations; endogenous partners detected by immunoblot; overnight at 4°C
T1 sequence: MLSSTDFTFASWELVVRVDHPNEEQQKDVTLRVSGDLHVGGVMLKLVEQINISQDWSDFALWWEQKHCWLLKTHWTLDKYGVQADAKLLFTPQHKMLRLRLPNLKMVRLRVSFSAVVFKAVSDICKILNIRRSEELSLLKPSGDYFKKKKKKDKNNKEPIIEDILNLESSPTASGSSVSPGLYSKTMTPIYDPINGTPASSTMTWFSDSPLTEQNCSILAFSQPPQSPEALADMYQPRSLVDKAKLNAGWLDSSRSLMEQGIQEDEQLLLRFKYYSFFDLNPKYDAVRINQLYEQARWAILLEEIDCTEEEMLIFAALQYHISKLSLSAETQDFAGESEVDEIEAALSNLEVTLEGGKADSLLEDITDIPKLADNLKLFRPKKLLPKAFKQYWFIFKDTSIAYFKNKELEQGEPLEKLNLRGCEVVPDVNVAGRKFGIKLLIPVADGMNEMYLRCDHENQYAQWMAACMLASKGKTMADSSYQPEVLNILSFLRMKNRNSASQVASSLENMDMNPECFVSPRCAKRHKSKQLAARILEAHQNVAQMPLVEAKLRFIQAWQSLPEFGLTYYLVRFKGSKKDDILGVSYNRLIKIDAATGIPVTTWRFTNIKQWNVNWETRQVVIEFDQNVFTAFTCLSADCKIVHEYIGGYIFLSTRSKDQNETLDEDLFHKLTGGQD

[1] = target: Smad3 (endogenous) (human (endogenous in HCT116)) (UniProt P84022); assay: co-IP; endogenous proteins from NP40 lysates of HCT116 cells precipitated with anti-Smad3, anti-TβRI or anti-SARA antibody, normal IgG as control, overnight at 4°C; also with Kindlin-1 siRNA, Kindlin-1 overexpression or re-expression, and TGF-β1 stimulation
[2] = target: T2, TGF-β receptor I (endogenous) (human (endogenous in HCT116)) (UniProt P36897); assay: as above
T2 sequence: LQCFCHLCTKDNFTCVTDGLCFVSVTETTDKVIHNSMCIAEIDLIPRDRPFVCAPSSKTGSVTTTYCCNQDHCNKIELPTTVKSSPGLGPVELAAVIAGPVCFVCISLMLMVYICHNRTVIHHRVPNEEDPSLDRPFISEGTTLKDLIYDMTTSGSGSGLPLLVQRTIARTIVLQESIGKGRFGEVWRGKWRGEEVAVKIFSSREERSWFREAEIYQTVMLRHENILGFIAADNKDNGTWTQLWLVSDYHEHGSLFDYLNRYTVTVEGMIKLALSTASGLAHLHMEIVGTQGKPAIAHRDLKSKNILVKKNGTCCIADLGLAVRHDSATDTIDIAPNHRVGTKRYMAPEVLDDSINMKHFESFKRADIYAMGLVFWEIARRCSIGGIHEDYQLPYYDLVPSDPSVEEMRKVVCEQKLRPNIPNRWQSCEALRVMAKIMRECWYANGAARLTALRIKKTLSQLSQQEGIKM

[3] = target: T3, Smad anchor for receptor activation (SARA) (endogenous) (human (endogenous in HCT116)) (UniProt O95405); assay: as above
T3 sequence: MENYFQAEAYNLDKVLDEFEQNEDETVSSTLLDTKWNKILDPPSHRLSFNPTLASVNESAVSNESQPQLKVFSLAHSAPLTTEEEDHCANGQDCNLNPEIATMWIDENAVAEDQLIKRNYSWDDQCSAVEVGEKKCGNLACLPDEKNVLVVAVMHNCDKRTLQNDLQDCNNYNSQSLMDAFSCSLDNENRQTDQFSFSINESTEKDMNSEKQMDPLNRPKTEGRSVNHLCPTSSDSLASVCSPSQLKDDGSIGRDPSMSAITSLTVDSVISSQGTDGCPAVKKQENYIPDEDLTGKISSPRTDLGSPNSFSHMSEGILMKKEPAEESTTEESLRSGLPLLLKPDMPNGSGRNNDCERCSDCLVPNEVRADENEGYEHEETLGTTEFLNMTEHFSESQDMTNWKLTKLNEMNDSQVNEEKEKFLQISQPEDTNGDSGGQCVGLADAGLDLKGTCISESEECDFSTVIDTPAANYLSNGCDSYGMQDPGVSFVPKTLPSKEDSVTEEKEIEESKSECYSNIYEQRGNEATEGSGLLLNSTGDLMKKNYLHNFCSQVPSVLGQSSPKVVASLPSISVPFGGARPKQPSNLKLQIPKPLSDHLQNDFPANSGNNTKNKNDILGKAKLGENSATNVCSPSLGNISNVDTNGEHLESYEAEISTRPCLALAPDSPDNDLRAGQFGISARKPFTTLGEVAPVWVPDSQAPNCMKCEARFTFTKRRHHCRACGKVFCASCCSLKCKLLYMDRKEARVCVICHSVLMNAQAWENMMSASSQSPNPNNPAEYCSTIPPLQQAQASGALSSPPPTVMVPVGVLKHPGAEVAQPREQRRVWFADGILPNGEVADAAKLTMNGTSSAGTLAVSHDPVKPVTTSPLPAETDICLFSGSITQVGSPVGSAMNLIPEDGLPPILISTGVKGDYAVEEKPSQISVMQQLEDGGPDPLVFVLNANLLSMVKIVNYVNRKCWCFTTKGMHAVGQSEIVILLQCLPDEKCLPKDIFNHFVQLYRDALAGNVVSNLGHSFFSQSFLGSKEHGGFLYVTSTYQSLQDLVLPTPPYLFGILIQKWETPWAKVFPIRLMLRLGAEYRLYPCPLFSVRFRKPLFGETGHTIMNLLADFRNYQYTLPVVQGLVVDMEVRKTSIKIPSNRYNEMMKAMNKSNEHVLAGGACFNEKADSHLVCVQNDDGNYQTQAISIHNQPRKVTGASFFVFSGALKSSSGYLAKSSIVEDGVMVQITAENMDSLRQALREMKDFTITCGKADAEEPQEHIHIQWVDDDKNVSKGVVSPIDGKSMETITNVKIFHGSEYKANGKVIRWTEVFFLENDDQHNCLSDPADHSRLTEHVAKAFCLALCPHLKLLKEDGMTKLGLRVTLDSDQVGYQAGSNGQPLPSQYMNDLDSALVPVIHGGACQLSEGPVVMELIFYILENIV

GST-Smad3-MH1 = GST-Smad3-MH1 (UniProt P84022); assay: pull-down; lysates of SW1116 cells transiently transfected with Flag-Kindlin-1 truncations pulled down with GST-fused Smad3 fragments; only the target purified

With “Smad2 (endogenous) (from UniProt Q15796 1-467)” the binding (Flag-Kindlin-1) was “no binding”.

With “Smad3 (endogenous) (from UniProt P84022 1-425)” the binding (Flag-Kindlin-1) was “binds”.

B1: Kindlin-1 (endogenous) (protein, UniProt Q9BQL6 1-677)
chain: MLSSTDFTFASWELVVRVDHPNEEQQKDVTLRVSGDLHVGGVMLKLVEQINISQDWSDFALWWEQKHCWLLKTHWTLDKYGVQADAKLLFTPQHKMLRLRLPNLKMVRLRVSFSAVVFKAVSDICKILNIRRSEELSLLKPSGDYFKKKKKKDKNNKEPIIEDILNLESSPTASGSSVSPGLYSKTMTPIYDPINGTPASSTMTWFSDSPLTEQNCSILAFSQPPQSPEALADMYQPRSLVDKAKLNAGWLDSSRSLMEQGIQEDEQLLLRFKYYSFFDLNPKYDAVRINQLYEQARWAILLEEIDCTEEEMLIFAALQYHISKLSLSAETQDFAGESEVDEIEAALSNLEVTLEGGKADSLLEDITDIPKLADNLKLFRPKKLLPKAFKQYWFIFKDTSIAYFKNKELEQGEPLEKLNLRGCEVVPDVNVAGRKFGIKLLIPVADGMNEMYLRCDHENQYAQWMAACMLASKGKTMADSSYQPEVLNILSFLRMKNRNSASQVASSLENMDMNPECFVSPRCAKRHKSKQLAARILEAHQNVAQMPLVEAKLRFIQAWQSLPEFGLTYYLVRFKGSKKDDILGVSYNRLIKIDAATGIPVTTWRFTNIKQWNVNWETRQVVIEFDQNVFTAFTCLSADCKIVHEYIGGYIFLSTRSKDQNETLDEDLFHKLTGGQD
For B1, the binding [1] was “binds”, the binding [2] was “binds” and the binding [3] was “binds”.

B2: Flag-Kindlin-1-N (domain or fragment, UniProt Q9BQL6 1-350)
chain: MLSSTDFTFASWELVVRVDHPNEEQQKDVTLRVSGDLHVGGVMLKLVEQINISQDWSDFALWWEQKHCWLLKTHWTLDKYGVQADAKLLFTPQHKMLRLRLPNLKMVRLRVSFSAVVFKAVSDICKILNIRRSEELSLLKPSGDYFKKKKKKDKNNKEPIIEDILNLESSPTASGSSVSPGLYSKTMTPIYDPINGTPASSTMTWFSDSPLTEQNCSILAFSQPPQSPEALADMYQPRSLVDKAKLNAGWLDSSRSLMEQGIQEDEQLLLRFKYYSFFDLNPKYDAVRINQLYEQARWAILLEEIDCTEEEMLIFAALQYHISKLSLSAETQDFAGESEVDEIEAALSNL
With B2 the binding (GST-Smad3-MH1) was “binds”.

B3: Smad anchor for receptor activation (SARA) (endogenous) (protein, UniProt O95405 1-1425)
chain: MENYFQAEAYNLDKVLDEFEQNEDETVSSTLLDTKWNKILDPPSHRLSFNPTLASVNESAVSNESQPQLKVFSLAHSAPLTTEEEDHCANGQDCNLNPEIATMWIDENAVAEDQLIKRNYSWDDQCSAVEVGEKKCGNLACLPDEKNVLVVAVMHNCDKRTLQNDLQDCNNYNSQSLMDAFSCSLDNENRQTDQFSFSINESTEKDMNSEKQMDPLNRPKTEGRSVNHLCPTSSDSLASVCSPSQLKDDGSIGRDPSMSAITSLTVDSVISSQGTDGCPAVKKQENYIPDEDLTGKISSPRTDLGSPNSFSHMSEGILMKKEPAEESTTEESLRSGLPLLLKPDMPNGSGRNNDCERCSDCLVPNEVRADENEGYEHEETLGTTEFLNMTEHFSESQDMTNWKLTKLNEMNDSQVNEEKEKFLQISQPEDTNGDSGGQCVGLADAGLDLKGTCISESEECDFSTVIDTPAANYLSNGCDSYGMQDPGVSFVPKTLPSKEDSVTEEKEIEESKSECYSNIYEQRGNEATEGSGLLLNSTGDLMKKNYLHNFCSQVPSVLGQSSPKVVASLPSISVPFGGARPKQPSNLKLQIPKPLSDHLQNDFPANSGNNTKNKNDILGKAKLGENSATNVCSPSLGNISNVDTNGEHLESYEAEISTRPCLALAPDSPDNDLRAGQFGISARKPFTTLGEVAPVWVPDSQAPNCMKCEARFTFTKRRHHCRACGKVFCASCCSLKCKLLYMDRKEARVCVICHSVLMNAQAWENMMSASSQSPNPNNPAEYCSTIPPLQQAQASGALSSPPPTVMVPVGVLKHPGAEVAQPREQRRVWFADGILPNGEVADAAKLTMNGTSSAGTLAVSHDPVKPVTTSPLPAETDICLFSGSITQVGSPVGSAMNLIPEDGLPPILISTGVKGDYAVEEKPSQISVMQQLEDGGPDPLVFVLNANLLSMVKIVNYVNRKCWCFTTKGMHAVGQSEIVILLQCLPDEKCLPKDIFNHFVQLYRDALAGNVVSNLGHSFFSQSFLGSKEHGGFLYVTSTYQSLQDLVLPTPPYLFGILIQKWETPWAKVFPIRLMLRLGAEYRLYPCPLFSVRFRKPLFGETGHTIMNLLADFRNYQYTLPVVQGLVVDMEVRKTSIKIPSNRYNEMMKAMNKSNEHVLAGGACFNEKADSHLVCVQNDDGNYQTQAISIHNQPRKVTGASFFVFSGALKSSSGYLAKSSIVEDGVMVQITAENMDSLRQALREMKDFTITCGKADAEEPQEHIHIQWVDDDKNVSKGVVSPIDGKSMETITNVKIFHGSEYKANGKVIRWTEVFFLENDDQHNCLSDPADHSRLTEHVAKAFCLALCPHLKLLKEDGMTKLGLRVTLDSDQVGYQAGSNGQPLPSQYMNDLDSALVPVIHGGACQLSEGPVVMELIFYILENIV
With B3 the binding (Flag-Kindlin-1) was “binds”.
